Test results reported in the supplement of paper PMC10441789.
The list shows a part of the results. Antibody binding of pooled human sera (four to six donors per pool; dilution not stated) to peptides of the Trypanosoma cruzi antigen TSSA on microarrays. Quantile-normalised fluorescence in arbitrary units, mean of duplicate arrays; higher = more binding. No active / inactive call. The uninfected pools are read here as the healthy donors of the same country. The strongest signals lie near the top of the scale (about 60,000).

What was measured:
Assay in all cases: antibody binding signal (normalised fluorescence) (arbitrary fluorescence units); higher = stronger serum antibody binding to peptide
[1] = tested on: pooled sera of chronic Chagas disease patients, Argentina
Protocol: (§1)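 Microarray of 15-residue peptides over residues 30-55 of Trypanosoma cruzi TSSAII, each with 1 to 10 substitutions at naturally variable positions, probed with one serum pool per country.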

[2] = tested on: pooled sera of chronic Chagas disease patients, Bolivia
Protocol: as §1

[3] = tested on: pooled sera of chronic Chagas disease patients, Brazil
Protocol: as §1

[4] = tested on: pooled sera of chronic Chagas disease patients, Colombia
Protocol: as §1

[5] = tested on: pooled sera of chronic Chagas disease patients, Mexico
Protocol: as §1

[6] = tested on: pooled sera of chronic Chagas disease patients, USA
Protocol: as §1

[7] = tested on: pooled sera of uninfected people, Argentina
Protocol: as §1

[8] = tested on: pooled sera of uninfected people, Bolivia
Protocol: as §1

[9] = tested on: pooled sera of uninfected people, Brazil
Protocol: as §1

[10] = tested on: pooled sera of uninfected people, Mexico
Protocol: as §1

[11] = tested on: pooled sera of uninfected people, USA
Protocol: as §1

| Sequence | antibody binding signal [1] | antibody binding signal [2] | antibody binding signal [3] | antibody binding signal [4] | antibody binding signal [5] | antibody binding signal [6] | antibody binding signal [7] | antibody binding signal [8] | antibody binding signal [9] | antibody binding signal [10] | antibody binding signal [11] |
| --- | --- | --- | --- | --- | --- | --- | --- | --- | --- | --- | --- |
| TDNKTATGGAPSQPG | 606 | 2030 | 3910 | 613 | 422 | 436 | 303 | 372 | 472 | 337 | 219 |
| NKTAAGEAPSQPGAS | 6540 | 34500 | 42700 | 359 | 545 | 6540 | 510 | 1200 | 901 | 286 | 1010 |
| SGKDNKTATGGAPSQ | 1100 | 269 | 679 | 2630 | 749 | 2200 | 297 | 166 | 134 | 109 | 147 |
| SGTENKAAAGEAPSQ | 40500 | 21200 | 25800 | 534 | 506 | 12600 | 446 | 396 | 116 | 111 | 154 |
| GKEKKTAAGETPSQP | 1460 | 393 | 15500 | 1300 | 2380 | 2930 | 114 | 102 | 99.7 | 93.7 | 119 |
| PPSGTENKPAAGEAP | 49800 | 47100 | 48200 | 377 | 5800 | 24000 | 5790 | 1780 | 477 | 381 | 862 |
| STPPSGKDKKTAAGE | 10500 | 3700 | 3900 | 572 | 36200 | 1840 | 388 | 525 | 390 | 113 | 128 |
| DNKAAAGGTPSQSGA | 468 | 261 | 548 | 3050 | 308 | 1090 | 263 | 326 | 2240 | 676 | 229 |
| GKENKTAAGGTPSQS | 1270 | 203 | 3430 | 4550 | 2240 | 9680 | 403 | 83.3 | 206 | 394 | 131 |
| KENKTATGGAPSPPG | 315 | 242 | 262 | 648 | 267 | 706 | 292 | 101 | 122 | 136 | 133 |
| SSTPPSGTDKKTAAG | 28600 | 8130 | 32100 | 5240 | 30300 | 4010 | 479 | 158 | 186 | 1000 | 221 |
| PSGTDKKAATGETPS | 3320 | 3030 | 13100 | 2960 | 917 | 11600 | 410 | 437 | 409 | 1400 | 240 |
| GKEKKPAAGEAPSQS | 4880 | 1490 | 5180 | 2900 | 3830 | 11800 | 98.8 | 83.6 | 100 | 76.5 | 244 |
| GTDKKPAAGETPSQP | 393 | 2710 | 34600 | 6330 | 469 | 2580 | 150 | 329 | 214 | 655 | 125 |
| SGTDNKPATGGTPSQ | 4940 | 2120 | 43800 | 3200 | 668 | 574 | 223 | 1010 | 518 | 417 | 216 |
| GKENKPAAGETPSQP | 7370 | 3530 | 35100 | 9970 | 10800 | 14000 | 855 | 428 | 161 | 327 | 144 |
| TPPSGTENKTATGGA | 54100 | 46700 | 52300 | 311 | 5320 | 20200 | 3350 | 555 | 372 | 463 | 634 |
| SGKEKKAAAGETPSQ | 6450 | 900 | 4340 | 4210 | 7890 | 6780 | 186 | 169 | 116 | 101 | 127 |
| EKKPATGEAPSPSGA | 44400 | 43000 | 46500 | 516 | 268 | 33700 | 827 | 618 | 350 | 286 | 612 |
| KTAAGGTPSQPGASS | 1120 | 236 | 311 | 7900 | 749 | 1120 | 484 | 130 | 290 | 990 | 156 |
| KDNKAATGETPSQPG | 5980 | 2310 | 39900 | 319 | 261 | 11600 | 360 | 893 | 240 | 140 | 193 |
| SGTENKPATGEAPSP | 46000 | 49500 | 48200 | 354 | 414 | 46800 | 1330 | 1320 | 383 | 324 | 147 |
| GKEKKAAAGETPSPS | 3600 | 744 | 438 | 3210 | 2370 | 2850 | 119 | 94.1 | 95.3 | 73.7 | 319 |
| PPSGTEKKTATGGTP | 19700 | 2010 | 12800 | 3170 | 2020 | 3870 | 806 | 359 | 356 | 134 | 190 |
| GTDNKTAAGGTPSQP | 1260 | 977 | 22300 | 5210 | 409 | 1430 | 365 | 571 | 2690 | 2840 | 151 |
| GTENKPATGGTPSQP | 46500 | 4820 | 20500 | 2060 | 3190 | 2900 | 484 | 1570 | 792 | 584 | 187 |
| SGKDKKAAAGGAPSP | 452 | 170 | 269 | 2350 | 1190 | 1170 | 115 | 67.4 | 85.7 | 82.9 | 94.6 |

| Sequence | antibody binding signal [1] | antibody binding signal [2] | antibody binding signal [3] | antibody binding signal [4] | antibody binding signal [5] | antibody binding signal [6] | antibody binding signal [7] | antibody binding signal [8] | antibody binding signal [9] | antibody binding signal [10] | antibody binding signal [11] |
| --- | --- | --- | --- | --- | --- | --- | --- | --- | --- | --- | --- |
| KKTAAGETPSPPGAS | 127 | 235 | 304 | 212 | 171 | 744 | 285 | 287 | 97.2 | 91.4 | 343 |
| ISTPPSGKDNKAAAG | 18100 | 1290 | 2240 | 304 | 23800 | 1900 | 336 | 286 | 112 | 86.6 | 163 |
| GKENKTAAGGAPSQS | 4250 | 518 | 8070 | 9710 | 7480 | 12900 | 358 | 114 | 126 | 134 | 147 |
| NKPATGETPSPSGAS | 19000 | 32400 | 33500 | 283 | 538 | 25600 | 440 | 1150 | 565 | 1510 | 1480 |
| TDKKTAAGETPSQPG | 557 | 2250 | 25800 | 312 | 245 | 1600 | 110 | 363 | 398 | 175 | 139 |
| GKDKKAATGETPSPP | 1480 | 370 | 7320 | 1400 | 1270 | 7910 | 250 | 110 | 85 | 94.2 | 205 |
| SGKEKKAAAGGTPSQ | 3090 | 812 | 1970 | 6190 | 5320 | 5330 | 147 | 114 | 445 | 84.1 | 108 |
| EKKPAAGETPSQSGA | 840 | 314 | 7650 | 454 | 284 | 1250 | 117 | 939 | 202 | 277 | 948 |
| SGKDNKTATGETPSP | 445 | 929 | 1670 | 1900 | 334 | 6570 | 286 | 291 | 188 | 161 | 656 |
| GTDKKPAAGEAPSQP | 6760 | 16400 | 38600 | 6960 | 510 | 15100 | 140 | 260 | 173 | 583 | 166 |
| DNKTATGEAPSPPGA | 11400 | 28300 | 17500 | 247 | 244 | 18800 | 160 | 134 | 214 | 148 | 113 |
| SGTENKAAAGETPSP | 41700 | 8190 | 17300 | 428 | 417 | 5300 | 400 | 375 | 109 | 199 | 510 |
| SGTENKPAAGGAPSP | 45200 | 18700 | 34900 | 1520 | 1310 | 8260 | 569 | 1500 | 355 | 322 | 165 |
| TENKPATGGTPSPSG | 47000 | 1480 | 2810 | 237 | 1170 | 445 | 369 | 733 | 352 | 323 | 214 |
| STPPSGKENKAATGG | 39600 | 3820 | 10200 | 770 | 7560 | 3920 | 3080 | 1070 | 145 | 146 | 416 |
| GTENKTATGEAPSQS | 24700 | 32900 | 25200 | 2730 | 3800 | 22100 | 187 | 264 | 156 | 132 | 80.4 |
| DNKAAAGGAPSQSGA | 534 | 396 | 765 | 4060 | 461 | 300 | 384 | 504 | 307 | 545 | 238 |
| TISTPPSGKEKKPAT | 18700 | 221 | 373 | 270 | 35600 | 399 | 660 | 370 | 195 | 83.9 | 241 |
| GKEKKTATGEAPSPP | 12200 | 4420 | 7060 | 5500 | 7540 | 15200 | 176 | 94.3 | 107 | 92.4 | 94.7 |
| NKPAAGGAPSPSGAS | 236 | 389 | 7980 | 2320 | 507 | 1260 | 730 | 894 | 533 | 157 | 1220 |
| GTDKKTAAGETPSQS | 204 | 327 | 633 | 1350 | 412 | 1210 | 96.2 | 331 | 200 | 193 | 92.9 |
| GKEKKAATGGAPSQP | 2900 | 393 | 1300 | 2080 | 1980 | 1780 | 210 | 107 | 93 | 80.2 | 81.2 |
| GKDNKPAAGEAPSPP | 2190 | 595 | 29600 | 1890 | 2870 | 16200 | 278 | 794 | 202 | 273 | 76.4 |
| GTDNKTAAGGAPSQP | 286 | 1140 | 20400 | 4010 | 494 | 305 | 274 | 683 | 1980 | 363 | 173 |
| GKENKTATGGTPSPS | 2870 | 416 | 7830 | 5540 | 5100 | 13500 | 381 | 123 | 133 | 157 | 109 |
| GTENKTAAGGTPSQS | 29500 | 549 | 415 | 5500 | 954 | 1880 | 428 | 467 | 1340 | 2980 | 173 |
